Assay results: the RNAGym collection of RNA variant scans (doi:10.7554/elife.90254)
The source gives no read counts; variants with many changes may rest on few reads.

B1: OR4K15 (parent)
chain: GUUAACGGUCAUAGGCCAUGGAAACUAGGAGCACCAUUUCGCUGCCAGUGAAGAAAUGAACAAAGAAAAUCUGGGCCAGGCAGGCAUCAAAAGAAAUAGUCUUGCGCUCAACCAGAAAGUCUGUAAUCAUUUUAAGGGUA

Variants of: B1
Test: self-cleavage, relative activity (ratio to wild type); higher = more cleavage; in vitro, sequencing; the parent is a self-cleaving ribozyme

Row | Variant | self-cleavage
1 | A51G A52G U103C U120C | 0.66
2 | A51G C81U U127C | 0.01
3 | U49A A62G A91G A126G | 0.3
4 | A47G U49A A56G C105U | 0.02
5 | G50A A91G U103A G136A | 0.47
6 | U49G A51G A114C | 0.06
7 | A51G A54G A64G A69G U120A A135G | 1.47
8 | A51G A89U A110G | 0.03
9 | A47U A66G U102C | 1.89
10 | A47G A96G A116G | 0.59
11 | A47G A110U A140G | 0.76
12 | A51G A55G U87C | 0.86
13 | U49C A66G A68G U131C A135G | 0.15
14 | A47U A90G A117G | 1.15
15 | A51G U127C A129G | 0.41
16 | A51G A94G A116G A129G | 1.02
17 | U49C A68U U139C | 0.96
18 | U49C A86G A90G A92G | 0.51
19 | A47G A98U A126G | 0.43
20 | A51U A52G A94U U130C | 1.19
21 | U49C A55G C76U A90G A111G | 0.01
22 | A47G A66G U120C C128U | 1.05
23 | A51G U87C A94U U131C | 0.51
24 | A51G A64G A118G | 0.63

Row | Variant | self-cleavage
25 | U49C A68G A82U A111G | 0.01
26 | G48A U72C U103C | 0.1
27 | U49C A94U A117G | 0.76
28 | A51G A126G U139C A140C | 0.34
29 | A51G A89G A92G | 1.88
30 | A51G A59U U132C | 1.68
31 | A51G A95G U108C U130C | 0
32 | G48A A69G A89G A98U A111G | 0.01
33 | A51G A82U A111G | 0.02
34 | A47U A60G U103C A110G | 0.02
35 | A47G A117G U120A U127C | 0
36 | G50A A95G G99U | 0.53
37 | U49C G84A U100C C109A | 0.1
38 | A47G G50A G99A | 0.68
39 | A51G A52G A116G U127A | 0.28
40 | A47G A95G U103C C105U U108G | 0
41 | A47U A56G G137U | 1.69
42 | U49C A59G U124C | 0.65
43 | U49C U72C U127C | 0.08
44 | A51G U70A C88U U120A U139C | 0.96
45 | A51G A111G A114G | 0.01
46 | U49A A54U U102A | 0.55
47 | U49A A51U A52G U133A | 1.38
48 | A47U A68U A90G A111G | 0.04

Row | Variant | self-cleavage
49 | U49C U70C U127C | 0.27
50 | A47G A91G U122C | 0.72
51 | U49C U139G A140U | 0.96
52 | A47U A51G A62G A63G | 0.23
53 | A51G U108C U122C | 0.01
54 | U49C A95U A126G | 1.39
55 | A47G A114G A129G | 0.06
56 | A51G A59G C77U A126G | 1.65
57 | A51G A66G U70C U100C U124A | 0.6
58 | A47G A69G U100C U122C | 2.06
59 | U49C A91G A117G | 1.34
60 | A47G U72C A110U | 0.17
61 | A51G A78U U132C U139C | 0.58
62 | U49C U100C U103A A110G | 0.11
63 | A47U A66G A95U | 2.32
64 | A47G G119A U122A A140G | 1.59
65 | A51G A54G U100G | 0.34
66 | A51G G65A A118G | 1.44
67 | A47G U87A A135G | 1.12
68 | U49C A82U U103A U120C | 0.09
69 | A51G A89G A126G | 0.67
70 | A47U A54U A59G U70A A114G U132C | 0.09
71 | U49A A62U U108C | 0.02
72 | A51G A54G A110G | 0.2

Row | Variant | self-cleavage
73 | U49C A51U A62G A67G C76A G84U A86G U122G | 0.36
74 | A51G A78U A95G A114G | 0.35
75 | A51G A60G A69G U103C | 0.3
76 | U49G A67G U72C U130C | 0.22
77 | U49C A56G A60G U130C | 1.11
78 | A47G A91G U102C | 1.18
79 | A51G G53U A82G | 0.51
80 | G50A A69G C109U | 0.35
81 | U49G A60G A95G A116U | 0.64
82 | U49C A82G A94G U122C A134C | 0.28
83 | U49C C85U C109U | 0.6
84 | G50U U72A U103C U131C | 0.08
85 | A51G A54G U57C A98G U122G A125G | 0.22
86 | U49C A59G A134G | 1.11
87 | U49C A51G A54G | 1.23
88 | U49C A52G A117U | 0.57
89 | A51G U70C A117G | 2.17
90 | U49C A86U U102A | 0.82
91 | A51G A92G A126U | 1.46
92 | A51G A69U A96G A111G A118G | 0.01
93 | A51G A66G U132C | 0.81
94 | A51G U57A A91G G136A U139C | 0.07
95 | A51G A64G U103A | 0.38
96 | A47U A59G A89G | 0.66

Row | Variant | self-cleavage
97 | A51G U70C A86C U108C | 0.03
98 | U49C A55G A125G | 0.31
99 | A51G A59U A116G | 0.54
100 | A51G A52U A56G U103C A135U | 0.56
101 | A51G A90G A92G U120C | 0.25
102 | A47G U97G U122C | 1.62
103 | A51G A52U A67G A110G | 0.15
104 | A47U A92G U102G A110G A114U A118G | 0.03
105 | A51G A63G A110G | 0.15
106 | U49C A52U A92G U102C | 1.05
107 | A51G A62U A78G | 0.45
108 | U49C A55G A60G A62U | 1.37
109 | A47G U70C A86G | 0.53
110 | A51G A94G A111G | 0.01
111 | U49C U57C A91G A111G | 0.02
112 | U49G A95G A118G | 1.53
113 | A47U A63G A98G | 0.27
114 | A51U A52U A94G A111U | 0.05
115 | A47U A52G A118G U127C A140G | 0.17
116 | A47U A86U U87C A111G U122C | 0.01
117 | A47U A69U A90G | 0.96
118 | A51C A54G A135G | 0.89
119 | U49C A52G U100C | 2.26
120 | A47G A66G U87C A92G | 1.28

Row | Variant | self-cleavage
121 | U49A A94G U122A | 1.87
122 | A51G A54U A59G A117G | 0.81
123 | A51G U72A A114U | 1.45
124 | A47G U57C A64G A86U | 1.42
125 | U49C A78U A90G A91G | 0.15
126 | G50A U108C A114U | 0.02
127 | U49C A55G A60G U124C | 0.81
128 | U49C A63G A69C A118U | 0.55
129 | U49A A54G A62U A134G | 1.41
130 | A51C U102C A118G | 1.47
131 | A47U A82U A96G U122A | 0.12
132 | A51C G79A A94G | 0.15
133 | U49A A82G U122A | 0.51
134 | U49C A51U A64U | 0.84
135 | A51G A96G A140G | 1.76
136 | A51G A60G A86G A111G | 0.04
137 | U49C A55U A59G A90G A126G | 0.49
138 | U49C C88A A114U U122C | 0.02
139 | U49A A68G A140G | 1.63
140 | A51G A91U U139C | 1.74
141 | U49C A59U A78U A89G | 0.09
142 | A47U A60G U108C U122C A125G A129G | 0
143 | A51G A55G C61U C77A A114G | 0.26
144 | A47G U49C A66G A86U A111C | 0.02

Row | Variant | self-cleavage
145 | A51G A54G A114U | 0.08
146 | A51G A52U A118G U122C | 0.41
147 | U49A A82U A94G A118G | 0.06
148 | U49C U57C U132A | 0.2
149 | U49C A82U U87C A125G | 0.01
150 | A51G A91G U122G | 2.43
151 | A47G U70A G106A A111G | 0.02
152 | A47G U49C A54G A126G U132C | 1.15
153 | U49C A62G A117U | 1.06
154 | U49C G84A U100C | 0.34
155 | A47G A117G U133A | 1.01
156 | A51G A63G A67U A82G A95G A117G A126U | 0.53
157 | U49C A56G A62G A66U A110G A114G | 0.03
158 | U49A A60G U102C | 1.57
159 | A51G A69G A116G | 0.33
160 | A51G A59G A94G U132A | 0.93
161 | A51G A54U U103A U124C | 0.26
162 | A51G U87C U120C | 0.19
163 | A51G A78C U131C | 0.34
164 | A47G U57A G74A A118G | 0.05
165 | A47U A52G A118G | 0.29
166 | U49C A86U A96G U131C | 0.9
167 | A47G G74A A95G A110G A118G A134G | 0.02
